# Reference: PubChem BioAssay (NCATS)
# Where “and” joins values, the source holds several entries; their conditions need not be identical. Equal entries are not always repeated. The shares of active, inactive and inconclusive entries below differ from those in the screen. For part of these data: Potencies beside an inconclusive call are fits to weak or partial responses and may not hold up. Calls of active or inactive are those of the source. Calls come from the whole dose curve; as a rule, active = well fitted curve in the direction sought with a large enough effect; inconclusive = small, poorly fitted or top-dose-only effect, or another doubt; inactive = no such curve, though single readings can be large; an effect the other way counts as inactive or inconclusive.
# Columns and labels:
# [1] = test system: Zika virus NS2B-NS3 protease (unlinked complex); experiment: Confirmatory screen GU AMC qHTS for Zika virus inhibitors (AID 1347153); note: nearly all actives have a fitted effect of over 70% in size;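 for Potency: enzyme at 25 nM with substrate at 10 µM below its Km of 18.3 µM; potency is the fitted concentration of half-maximal effect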
# Method in brief: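 Unlinked NS2B-NS3 complex (25 nM) in 10 mM Tris-HCl pH 8.0, 0.01% Tween 20 preincubated 15 min with compound, then 10 microM Bz-Nle-KRR-AMC (Km 18.3 µM). Fluorescence change over 15 min, normalized, Hill-fitted.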
# [2] = test system: Zika virus NS2B-NS3 protease (unlinked complex); experiment: Primary screen GU Rhodamine qHTS for Zika virus inhibitors: Unlinked NS2B-NS3 protease assay (AID 1347159); details: Recombinant ZIKV NS2B-NS3 protease, Rhodamine110 substrate fluorescence; series mostly up to 107 µM; note: potency is the fitted concentration of half-maximal effect; nearly all actives have a fitted effect of over 60% in size
# Method in brief: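 Noncovalent NS2B hydrophilic domain/NS3 protease complex (25 nM final) in 10 mM Tris-HCl pH 8.0, 0.01% Tween 20, preincubated 15 min with compounds (up to 114 microM), then 1.5 microM Rhodamine110 substrate. Fluorescence change over 15 min fitted to 4-parameter Hill.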
# [3] = test system: Zika virus NS2B-NS3 protease; experiment: Primary screen GU AMC qHTS for Zika virus inhibitors (AID 1347154); note: nearly all actives have a fitted effect of over 70% in size; note: potency is the fitted concentration of half-maximal effect
# Method in brief: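 Unlinked Zika NS2B hydrophilic domain–NS3 protease complex at 25 nM in 10 mM Tris-HCl pH 8.0, 0.01% Tween 20, with an AMC peptide substrate. Fluorescence change (340/450 nm) over 15 min at room temperature, normalized to controls, fitted to 4-parameter Hill.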
# [4] = ZIKV-mCherry secondary qHTS for Zika virus inhibitors (AID 1347158); note: potency is the fitted concentration of half-maximal effect
# Method in brief: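 Vero cells (5,000/well) were given compound, then infected with ZIKV-mCherry at MOI 1 for 48–72 h at 37 °C. After PFA fixation and Hoechst staining, imaging gave percent mCherry-positive cells. The positivity threshold was RFU above 450, 3 SD over negative controls.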
# [5] = test system: Zika virus NS2B-NS3 protease (linked); experiment: 384 well plate NINDS AMC confirmatory qHTS for Zika virus inhibitors (AID 1347163); note: potency is the fitted concentration of half-maximal effect; nearly all actives have a fitted effect of over 50% in size
# Method in brief: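 Linked NS2B-NS3 protease (final 5 nM, 30 nM or 60 nM) was preincubated with compounds (final up to 1 mM) for ~15 minutes. Ac-VKTGKR-AMC substrate (final 30 microM) then reacted for 25 minutes at room temperature in the dark. Fluorescence (ex 355/em 460 nm) was normalized to no-enzyme and no-inhibitor controls.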
# [6] = Confirmatory screen NINDS Rhodamine qHTS for Zika virus inhibitors (AID 1347161); note: potency is the fitted concentration of half-maximal effect; nearly all actives have a fitted effect of over 60% in size
# Method in brief: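 Single-chain NS2B-NS3 protease, 25 nM, pH 8.0; compounds preincubated 15 min. Activity: Rhodamine110 release from 1.5 microM substrate over 15 min, room temperature, data fitted to 4-parameter Hill.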
# [7] = Vero cells viability qHTS for Zika virus inhibitors (AID 1347167); note: potency is the fitted concentration of half-maximal effect
# Method in brief: (§1)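 Cells seeded at 2.5 x 10^5 cells/mL in DMEM with 4% FBS and attached overnight at 37 degrees C, then exposed to compound for 24 to 48 hours. Viability read as ATP content by CellTiter Glo luminescence.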
# [8] = HepG2 cells viability qHTS for Zika virus inhibitors (AID 1347168); details: Zika counter-screen; note: potency is the fitted concentration of half-maximal effect
# Method in brief: as §1
# [9] = test system: Zika virus NS2B-NS3 protease (linked construct); experiment: 384 well plate NINDS Rhodamine confirmatory qHTS for Zika virus inhibitors (AID 1347164);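 note: fluorescence from protease cleavage of Ac-LKRR-rhodamine 110 substrate; top concentration of the series differs between compounds; nearly all actives have a fitted effect of over 65% in size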
# Method in brief: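 Enzyme (final 5/30/60 nM) + cpd (DMSO), ~15 min; add Ac-LKRR-Rd 10 microM final; 25 min RT, dark; FI ex 485/em 538; normalized to no-enzyme, no-inhibitor ctrls; aprotinin intraplate ctrl.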
# [10] = target: Lysine-specific demethylase 5B (Homo sapiens) (UniProt Q9UGL1); experiment: Optimization screen for KDM5B Histone Demethylases FDH coupled qHTS against the LOPAC library (AID 1347166); details: KDM5B demethylation, FDH-coupled NADH fluorescence (FDH is formaldehyde dehydrogenase); series mostly up to 57.5 µM; note: potency is the fitted concentration of half-maximal effect
# Chain of UniProt Q9UGL1 (Q9UGL1 whole entry, looked up): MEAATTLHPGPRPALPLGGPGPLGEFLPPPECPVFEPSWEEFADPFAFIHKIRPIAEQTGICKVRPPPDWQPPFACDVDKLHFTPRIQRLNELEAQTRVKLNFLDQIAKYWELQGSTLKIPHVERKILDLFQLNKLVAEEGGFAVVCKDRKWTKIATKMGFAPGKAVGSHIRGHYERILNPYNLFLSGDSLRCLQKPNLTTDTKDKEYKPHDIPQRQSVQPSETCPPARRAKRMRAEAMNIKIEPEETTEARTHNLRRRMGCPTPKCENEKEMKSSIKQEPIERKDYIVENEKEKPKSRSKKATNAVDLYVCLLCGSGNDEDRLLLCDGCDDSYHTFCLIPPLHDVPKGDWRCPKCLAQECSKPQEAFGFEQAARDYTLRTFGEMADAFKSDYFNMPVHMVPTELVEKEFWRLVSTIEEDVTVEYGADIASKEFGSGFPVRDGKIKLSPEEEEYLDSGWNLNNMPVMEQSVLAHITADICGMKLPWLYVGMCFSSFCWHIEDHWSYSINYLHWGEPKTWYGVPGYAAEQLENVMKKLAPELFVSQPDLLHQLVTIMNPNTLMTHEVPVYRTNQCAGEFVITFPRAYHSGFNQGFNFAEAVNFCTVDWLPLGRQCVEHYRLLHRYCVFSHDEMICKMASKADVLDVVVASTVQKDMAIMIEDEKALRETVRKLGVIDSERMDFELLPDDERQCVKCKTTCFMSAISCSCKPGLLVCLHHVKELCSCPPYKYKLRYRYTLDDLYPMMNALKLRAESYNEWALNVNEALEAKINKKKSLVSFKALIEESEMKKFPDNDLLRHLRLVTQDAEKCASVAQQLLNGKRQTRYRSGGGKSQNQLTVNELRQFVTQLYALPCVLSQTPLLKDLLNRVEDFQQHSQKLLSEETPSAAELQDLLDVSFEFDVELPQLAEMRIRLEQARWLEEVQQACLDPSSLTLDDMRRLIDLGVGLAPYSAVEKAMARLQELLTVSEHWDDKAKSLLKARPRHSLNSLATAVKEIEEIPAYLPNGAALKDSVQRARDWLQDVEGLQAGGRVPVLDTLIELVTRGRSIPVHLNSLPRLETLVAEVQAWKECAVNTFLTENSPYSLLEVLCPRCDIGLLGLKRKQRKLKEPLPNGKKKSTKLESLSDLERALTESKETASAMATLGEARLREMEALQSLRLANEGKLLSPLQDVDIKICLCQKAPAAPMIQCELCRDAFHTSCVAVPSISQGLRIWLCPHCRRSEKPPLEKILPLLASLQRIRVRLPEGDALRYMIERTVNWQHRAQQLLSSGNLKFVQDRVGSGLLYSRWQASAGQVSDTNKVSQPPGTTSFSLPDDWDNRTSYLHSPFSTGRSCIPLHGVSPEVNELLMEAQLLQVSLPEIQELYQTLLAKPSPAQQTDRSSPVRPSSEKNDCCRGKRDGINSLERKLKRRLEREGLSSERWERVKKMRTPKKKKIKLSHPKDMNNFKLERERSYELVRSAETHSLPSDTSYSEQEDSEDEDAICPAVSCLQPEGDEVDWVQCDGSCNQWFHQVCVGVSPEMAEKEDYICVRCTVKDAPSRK
# Method in brief: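 KDM5BDeltaAP (200nM final) preincubated 10 min with compound, then 12.5uM H3K4Me3, 25uM a-ketoglutarate, ascorbate, Fe(II), NAD+ and FDH added; 50mM HEPES pH 7.5, 0.01% Tween-20. NADH fluorescence (340/450 nm) change over 30 min, room temperature.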
# Tags give direction and shape of the fitted curve.
smiles,measurement,setting,value
CC/C=C/C=C/C1(C)OC(OC)=C(C(=O)C2C(C)C(=O)c3cc(OC)c(O)c(O)c3C2(C)O)C1=O (centres undefined),Potency,[1],inactive
same,Potency,[2],active: 6.31 µM
CN(C)[C@@H]1C(=O)C(C(N)=O)=C(O)[C@@]2(O)C(=O)C3=C(O)c4c(O)cccc4[C@@](C)(O)[C@H]3[C@H](O)[C@@H]12,Potency,[1],"inconclusive: 24.1 µM [inhibitor, single point]"
same,Potency,[3],"inconclusive: 33.6 µM [inhibitor, partial curve, poor fit]"
same,Potency,[4],inactive
CC(C)(C)c1cc(C=C(C#N)C#N)cc(Br)c1O,Potency,[3],"inconclusive: 24.1 µM [inhibitor, partial curve]"
Oc1cccc2cccnc12,Potency,[3],"inconclusive: 15.8 µM [inhibitor, partial curve]"
C[C@]12CCC(=O)C(O)=C1CC[C@@H]1[C@@H]2CC[C@]2(C)C(=O)CC[C@@H]12,Potency,[3],inactive
Cc1cc(SCc2sc(-c3ccc(C(F)(F)F)c(F)c3)nc2C)ccc1OCC(=O)O,Potency,[1],"inconclusive: 11.1 µM [inhibitor, full curve]"
same,Potency,[4],"inconclusive: 28.2 µM [inhibitor, partial curve, poor fit]"
same,Potency,[2],active: 2.82 µM
same,Potency,[5],"inconclusive: 35.5 µM [inhibitor, partial curve, poor fit] and active: 39.8 µM"
C[C@]12CCC(=O)C=C1CC[C@@H]1[C@@H]2CC[C@]2(C)C(=O)CC[C@@H]12,Potency,[3],inactive
CC(C)=CCC[C@]1(C)C=Cc2c(O)c3c(c(CC=C(C)C)c2O1)O[C@]12C(=C[C@@H]4CC1C(C)(C)O[C@@]2(C/C=C(/C)C(=O)O)C4=O)C3=O,Potency,[1],"inconclusive: 6.98 µM [inhibitor, full curve]"
same,Potency,[4],"inconclusive: 1.12 µM [inhibitor, full curve]"
same,Potency,[2],active: 2.82 µM
same,Potency,[6],active: 2.48 µM
same,Potency,[7],active: 8.29 µM
same,Potency,[8],active: 2.94 µM
COc1cc(OC)c(OC)cc1C=O,Potency,[3],"inconclusive: 63.8 µM [inhibitor, partial curve, poor fit]"
O=[N+]([O-])c1ncc[nH]1,Potency,[3],"inconclusive: 4.29 µM [inhibitor, partial curve, poor fit]"
CC1=NN=C(c2ccc(N)cc2)c2cc3c(cc2C1)OCO3,Potency,[3],"inconclusive: 21.2 µM [inhibitor, single point]"
CN1CCC(O)(c2ccc(F)cc2)C(C(=O)c2ccc(F)cc2)C1 (centres undefined),Potency,[3],"inconclusive: 11.2 µM [inhibitor, single point]"
CCN(C(C)=O)c1cccc(-c2ccnc3c(C#N)cnn23)c1,Potency,[1],"inconclusive: 27.1 µM [inhibitor, single point]"
same,Potency,[3],active: 31.6 µM
C[C@]12CC[C@H]3[C@@H](CCC4=CC(=O)CC[C@@H]43)[C@@H]1CC[C@@H]2OC(=O)CCc1ccco1,Potency,[3],"inconclusive: 32.2 µM [inhibitor, single point]"
N[C@@H](Cc1ccc(Oc2cc(I)c(O)c(I)c2)c(I)c1)C(=O)O,Potency,[1],"inconclusive: 21.5 µM [inhibitor, partial curve]"
same,Potency,[4],"inconclusive: 14.1 µM [inhibitor, full curve, poor fit]"
same,Potency,[5],active: 50.1 µM
same,Potency,[9],inactive
C#C[C@]1(O)CC[C@H]2[C@@H]3CCC4=CC(=O)CCC4=C3C=C[C@@]21CC,Potency,[3],"inconclusive: 20.3 µM [inhibitor, partial curve]"
O=S(=O)(F)Cc1ccccc1,Potency,[3],inactive
CN1C[C@H](CNC(=O)OCc2ccccc2)C[C@@H]2c3cccc4c3c(cn4C)C[C@H]21,Potency,[1],inactive
same,Potency,[10],"inconclusive: 35.5 µM [inhibitor, partial curve, poor fit]"
O=C(O)c1ccc2[nH]cc(CCCCN3CC=C(c4ccccc4)CC3)c2c1,Potency,[3],inactive
CN(C)CCc1c[nH]c2cccc(O)c12,Potency,[3],inactive
C=CCC1=C(C)C(OC(=O)C2C(C=C(C)C)C2(C)C)CC1=O (centres undefined),Potency,[3],"inconclusive: 52.2 µM [inhibitor, partial curve, poor fit]"
Cc1nc(-c2ccc(-c3ccc(C(=O)N4CCc5cc6c(cc54)C4(CCN(C)CC4)CO6)cc3)c(C)c2)no1,Potency,[3],"inconclusive: 24.1 µM [inhibitor, partial curve]"
Clc1ccc(CSC(Cn2ccnc2)c2ccc(Cl)cc2Cl)cc1 (centres undefined),Potency,[3],"inconclusive: 31.6 µM [inhibitor, partial curve, poor fit]"
